Test results taken from the supplement of paper PMC9151546.
Many values rest on one well or one pass, so single values are uncertain.

Columns and labels:
CHO-K1 [1] = experiment: micronucleus frequency (% of nucleated events); higher = more micronuclei (genotoxic)
CHO-K1 [2] = experiment: hypodiploid nuclei frequency (% of nucleated events); higher = more hypodiploid events (aneugenic)
Experimental: (§1)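 Flow-cytometric in vitro micronucleus assay (Litron MicroFlow) in CHO-K1 cells in 96-well plates, 19 concentrations (4.5-200 µM, n=1 per concentration). Without S9, cells were exposed for 24 h and sampled at 48 h. With Aroclor 1254-induced rat liver S9, cells were exposed for 3-4 h and sampled at 27-28 h. Read-outs are %MN and %hypodiploid nuclei relative to nucleated events, and relative survival as the nuclei-to-bead ratio versus the 1% DMSO vehicle control (x100).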

CHO-K1 [3] = experiment: relative survival (nuclei to bead ratio vs DMSO control) (% of vehicle control); higher = more surviving cells
Experimental: as §1
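Throughout, for hypodiploid nuclei frequency (% of nucleated events): hypodiploid nuclei gated on a flow cytometer with 488 nm excitation after SYTOX Green staining, cultures at 37 °C, positive controls vinblastine without S9 and cyclophosphamide with S9.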
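Throughout, for micronucleus frequency (% of nucleated events): cells lysed with nuclei stained by SYTOX Green, then micronucleus-gated events counted against nucleated events by flow cytometry with 488 nm excitation.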
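Throughout, for relative survival (nuclei to bead ratio vs DMSO control): Lysed-cell nuclei stained with SYTOX Green and counted against counting beads by flow cytometry at 488 nm excitation, with vinblastine (no S9) and cyclophosphamide (plus S9) as positive controls.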

CCOC(=O)C(C)(C)Oc1ccc(Cl)cc1 [Clofibrate]
Conditions | hypodiploid nuclei frequency, CHO-K1 [2] [%] | micronucleus frequency, CHO-K1 [1] [%] | relative survival, CHO-K1 [3]
concentration: 4.5 (µM), S9 metabolic activation: with S9, exposure time: 3-4 hours | 0.12 | 1.68 | 127
concentration: 4.5 (µM), S9 metabolic activation: without S9, exposure time: 24 hours | 0.48 | 1.44 | 115
concentration: 5.63 (µM), S9 metabolic activation: with S9, exposure time: 3-4 hours | 0.24 | 1.44 | 123
concentration: 5.63 (µM), S9 metabolic activation: without S9, exposure time: 24 hours | 0.6 | 1.88 | 131
concentration: 7.04 (µM), S9 metabolic activation: with S9, exposure time: 3-4 hours | 0.2 | 1.28 | 106
concentration: 7.04 (µM), S9 metabolic activation: without S9, exposure time: 24 hours | 0.7 | 1.3 | 111
concentration: 8.8 (µM), S9 metabolic activation: with S9, exposure time: 3-4 hours | 0.1 | 1.32 | 113
concentration: 8.8 (µM), S9 metabolic activation: without S9, exposure time: 24 hours | 0.68 | 1.68 | 117
concentration: 11 (µM), S9 metabolic activation: with S9, exposure time: 3-4 hours | 0.26 | 1.18 | 115
concentration: 11 (µM), S9 metabolic activation: without S9, exposure time: 24 hours | 0.74 | 1.54 | 141
concentration: 13.7 (µM), S9 metabolic activation: with S9, exposure time: 3-4 hours | 0.24 | 2.64 | 117
concentration: 13.7 (µM), S9 metabolic activation: without S9, exposure time: 24 hours | 0.6 | 2.26 | 115
concentration: 17.2 (µM), S9 metabolic activation: with S9, exposure time: 3-4 hours | 0.18 | 1.48 | 94.4
concentration: 17.2 (µM), S9 metabolic activation: without S9, exposure time: 24 hours | 0.84 | 1.66 | 105
concentration: 21.5 (µM), S9 metabolic activation: with S9, exposure time: 3-4 hours | 0.3 | 1.28 | 122
concentration: 21.5 (µM), S9 metabolic activation: without S9, exposure time: 24 hours | 0.52 | 1.92 | 115
concentration: 26.8 (µM), S9 metabolic activation: with S9, exposure time: 3-4 hours | 0.34 | 1.36 | 107
concentration: 26.8 (µM), S9 metabolic activation: without S9, exposure time: 24 hours | 0.58 | 1.38 | 140
concentration: 33.6 (µM), S9 metabolic activation: with S9, exposure time: 3-4 hours | 0.18 | 1 | 131
concentration: 33.6 (µM), S9 metabolic activation: without S9, exposure time: 24 hours | 0.76 | 1.72 | 112
concentration: 41.9 (µM), S9 metabolic activation: with S9, exposure time: 3-4 hours | 0.16 | 1.64 | 113
concentration: 41.9 (µM), S9 metabolic activation: without S9, exposure time: 24 hours | 0.72 | 1.58 | 126
concentration: 52.4 (µM), S9 metabolic activation: with S9, exposure time: 3-4 hours | 0.26 | 1.34 | 93.8
concentration: 52.4 (µM), S9 metabolic activation: without S9, exposure time: 24 hours | 0.54 | 1.68 | 131
concentration: 65.5 (µM), S9 metabolic activation: with S9, exposure time: 3-4 hours | 0.34 | 1 | 98.5
concentration: 65.5 (µM), S9 metabolic activation: without S9, exposure time: 24 hours | 0.86 | 1.18 | 118
concentration: 81.9 (µM), S9 metabolic activation: with S9, exposure time: 3-4 hours | 0.3 | 1.5 | 99.7
concentration: 81.9 (µM), S9 metabolic activation: without S9, exposure time: 24 hours | 0.82 | 1.74 | 130
concentration: 102 (µM), S9 metabolic activation: with S9, exposure time: 3-4 hours | 0.18 | 0.88 | 102
concentration: 102 (µM), S9 metabolic activation: without S9, exposure time: 24 hours | 1.06 | 1.16 | 98.1
concentration: 128 (µM), S9 metabolic activation: with S9, exposure time: 3-4 hours | 0.14 | 1.42 | 108
concentration: 128 (µM), S9 metabolic activation: without S9, exposure time: 24 hours | 0.9 | 1.72 | 117
concentration: 160 (µM), S9 metabolic activation: with S9, exposure time: 3-4 hours | 0.3 | 1.26 | 106
concentration: 160 (µM), S9 metabolic activation: without S9, exposure time: 24 hours | 1.1 | 1.84 | 108
concentration: 200 (µM), S9 metabolic activation: with S9, exposure time: 3-4 hours | 0.18 | 1.36 | 93.3
concentration: 200 (µM), S9 metabolic activation: without S9, exposure time: 24 hours | 1.6 | 2.46 | 98.6
